Data as given in the supplement of paper PMC11060735.
Where “and” joins values, the source holds several entries; their conditions need not be identical. Equal entries are not always repeated. Structures can show the parent of a compound that is named as a salt. Screen size: about 1,800 compounds; about 50 (3%) showed activity. The list shows a part of the results.

Tested on: mouse p16Ink4a+/- lung fibroblasts (INKBRITE, bleomycin-injured)
Test: percentage of GFP+ (p16Ink4a+) fibroblasts among all cells in well; higher = less depletion of p16Ink4a+ cells, active = 20 or less
Settings: 1 µM; 3 days
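Further: fibroblasts sorted 14 days after bleomycin, GFP+ and GFP− mixed 1:1 in 384-well plates (GFP− as in-well control), imaged after Hoechst and NucView530 staining, reference wells lacked compound.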

Structure (SMILES)	percentage of GFP+
O=C1NC(=O)C(c2ccccc2)(c2ccccc2)N1 [Phenytoin]	inactive: 37.6% and inactive: 38.8%
CCN(Cc1ccncc1)C(=O)C(CO)c1ccccc1 (stereo not drawn) [Tropicamide]	inactive: 49.3%
COc1c(N2C[C@@H]3CCCN[C@@H]3C2)c(F)cc2c(=O)c(C(=O)O)cn(C3CC3)c12 [Moxifloxacin]	inactive: 48.2%
Cc1cc(Nc2cc(CN3CCOCC3)c3nc(C)c(Cc4ccc(Cl)cc4F)n3n2)[nH]n1	inactive: 43.7%
O=C(/C=C/c1cccc(S(=O)(=O)Nc2ccccc2)c1)NO [Belinostat]	active: 15.9%
CN(C/C=C/C#CC(C)(C)C)Cc1cccc2ccccc12 [Terbinafine, Terbinafine Hydrochloride]	inactive: 45.5% and inactive: 36.2%
C=CC(=O)Nc1cccc(Oc2nc(Nc3ccc(N4CCN(C)CC4)cc3OC)ncc2Cl)c1	inactive: 47.1%
Cc1ccc(Sc2cncc3sc(C(N)=O)cc23)cc1	inactive: 30.6%
c1ccc2c(c1)CCCC2C1=NCCN1 (stereo not drawn) [Tetryzoline]	inactive: 41.8%
CCCCCCCCCCCC1=C(O)C(O)=CC(=O)C1=O [Embelin]	inactive: 51.4%
CN(C)CCN1C(=O)c2cccc3cc(N)cc(c23)C1=O [Amonafide]	inactive: 22.8%
Oc1ncnc2[nH]ncc12 [Allopurinol]	inactive: 49.8%
CC1CCc2cc(F)cc3c(=O)c(C(=O)O)cn1c23 (stereo not drawn) [Flumequine]	inactive: 50.5%
CC(C)N(CCCNC(=O)Nc1ccc(C(C)(C)C)cc1)C[C@H]1O[C@@H](n2cc(Br)c3c(N)ncnc32)[C@H](O)[C@@H]1O	inactive: 46.1%
C[C@@H]1CCO[C@H]2Cn3cc(C(=O)NCc4ccc(F)cc4F)c(=O)c(O)c3C(=O)N12 [Dolutegravir]	inactive: 45.3%
COc1c2occc2cc2ccc(=O)oc12 [Methoxsalen]	inactive: 50.4%
N#CC[C@@H](C1CCCC1)n1cc(-c2ncnc3[nH]ccc23)cn1 [S-Ruxolitinib]	inactive: 47.4%
Cc1ccc(S(=O)(=O)c2ccc([N+](=O)[O-])o2)cc1	inactive: 26.1%
CN1CCc2nc(C(=O)N[C@@H]3C[C@@H](C(=O)N(C)C)CC[C@@H]3NC(=O)C(=O)Nc3ccc(Cl)cn3)sc2C1 [Edoxaban]	inactive: 45.7%
CO[C@H]1C(=O)[C@]2(C)[C@@H](OC)C[C@H]3OC[C@@]3(OC(C)=O)[C@H]2[C@H](OC(=O)c2ccccc2)[C@]2(O)C[C@H](OC(=O)[C@H](O)[C@@H](NC(=O)OC(C)(C)C)c3ccccc3)C(C)=C1C2(C)C [Cabazitaxel]	inactive: 37.8%
CCO/C(O)=C1\C(C)=NC(C)=C(C(=O)OC)C1c1cccc([N+](=O)[O-])c1 (stereo not drawn) [Nitrendipine]	inactive: 39.9%
O=C(O)CC[C@H]1CC[C@@](c2cc(F)ccc2F)(S(=O)(=O)c2ccc(Cl)cc2)CC1	inactive: 47.5%
O=C(O)[C@H](Cc1c[nH]c2ccccc12)N1C(=O)c2ccccc2C1=O	inactive: 38.7%
CN1CCN(C2=Nc3ccccc3Oc3ccc(Cl)cc32)CC1 [Loxapine]	inactive: 51.2%
COc1ccc(Cn2ccc3ccc(C(=O)NO)cc32)cc1	inactive: 47.2%

Structure (SMILES)	percentage of GFP+
COc1cc(Nc2ncc3c(n2)-c2ccc(Cl)cc2C(c2c(F)cccc2OC)=NC3)ccc1C(=O)O [Alisertib]	inactive: 35.8%
NC(=S)N/N=C/c1ncccc1N [Triapine]	active: 17.4%
COc1cc(C)c(/C=C/C(C)=C/C=C/C(C)=C/C(=O)O)c(C)c1C [Acitretin]	inactive: 33.2%
CCCCCCCCCCCCc1ccc(S(=O)(=O)Nc2nncs2)cc1	inactive: 45.7%
CC(=O)Nc1ccccc1 [Acetanilide]	inactive: 40.8%
CN1CCC[C@@H]1CCO[C@](C)(c1ccccc1)c1ccc(Cl)cc1 [Clemastine, Clemastine Fumarate]	inactive: 44.8%
COc1ccc(CN2CCN(C(c3ccc(F)cc3)c3ccc(F)cc3)CC2)c(OC)c1OC [Lomerizine, Lomerizine Dihydrochloride]	inactive: 56.3%
COc1c(C)c(C(=O)c2ccc(N)c(C(=O)O)c2)n2ccccc12	inactive: 39%
CN/C(=C\[N+](=O)[O-])NCCSCc1ccc(CN(C)C)o1 [Ranitidine]	inactive: 29.8%
O=C(CCc1ccc(O)cc1)c1c(O)cc(O)cc1O[C@@H]1O[C@H](CO)[C@@H](O)[C@H](O)[C@H]1O [Phloridzin]	inactive: 36.4%
Cc1c(Cc2ccc3ccccc3n2)c2cc(F)ccc2n1CC(=O)O	inactive: 45.5%
COc1cccc2cc(-c3nc([C@H]4CC[C@H](C(=O)O)CC4)n4ncnc(N)c34)[nH]c12	inactive: 29.7%
CC(C)(C)n1nc(-c2ccc(Cl)cc2)c2c(N)ncnc21	inactive: 42.6%
CCOC(=O)c1ccc(C#Cc2ccc3c(c2)C(C)(C)CCS3)nc1 [Tazarotene]	inactive: 41.8%
C[C@H]1[C@H](NC(=O)/C(=N\OC(C)(C)C(=O)O)c2csc(N)n2)C(=O)N1S(=O)(=O)O [Aztreonam]	inactive: 43.8%
COc1cc(N2CCC(N(C)C)CC2)ccc1Nc1ncc(Cl)c(Nc2ccccc2P(C)(C)=O)n1	inactive: 39.9%
Cn1cc(-c2ccc3nnc(Sc4ccc5ncccc5c4)n3n2)cn1	inactive: 45.6%
O=C(Nc1ccccc1)c1cc([N+](=O)[O-])ccc1Cl [2-chloro-5-nitro-N-phenylbenzamide]	inactive: 32.7%
O=C(/C=C/c1ccc(O)c(O)c1)OCCc1ccccc1 [Caffeic Acid Phenethyl Ester]	inactive: 37.6%
CN(C)Cc1ccc(-c2nc3cccc4c3n2CCNC4=O)cc1	inactive: 49.4%
O=C1Cc2c([nH]c3ccc(Br)cc23)-c2ncccc2N1 [1-Azakenpaullone]	inactive: 47.8%
Cc1ccccc1-n1c(Cn2nc(-c3cccc(O)c3)c3c(N)ncnc32)nc2cccc(C)c2c1=O	inactive: 34.5%
C#CCN[C@@H]1CCc2ccccc21 [Rasagiline]	inactive: 43.2%
CC1=C(CC(=O)O)c2cc(F)ccc2/C1=C\c1ccc(S(C)=O)cc1 (stereo not drawn) [Sulindac]	inactive: 41.6%
CC(C)[C@@H](C)/C=C/[C@@H](C)[C@@H]1CC[C@H]2C3=CC=C4C[C@@H](O)CC[C@]4(C)[C@@H]3CC[C@@]21C [Ergosterol]	inactive: 48.5%

Structure (SMILES)	percentage of GFP+
CC1(C)O[C@@H]2C[C@H]3[C@@H]4CCC5=CC(=O)CC[C@]5(C)[C@@]4(F)[C@@H](O)C[C@]3(C)[C@]2(C(=O)CCl)O1 [Halcinonide]	inactive: 42.1%
CC1(C)CCC[C@]2(C)[C@H]3CC(=O)O[C@]3(C)CC[C@@H]12 [Sclareolide]	inactive: 45.5%
C=CC(=O)N1CCCC(n2nc(-c3ccc(Oc4ccccc4)cc3)c3c(N)ncnc32)C1 (stereo not drawn) [Ibrutinib]	inactive: 34.1%
CS(=O)(=O)c1cccc(CNc2nc(Nc3ccc4c(c3)CCC(=O)N4)ncc2C(F)(F)F)c1	inactive: 36%
COc1ccc(C(=O)Nc2sc3c(c2C(N)=O)CCCC3)cc1OC	inactive: 42.9%
C=C1CC[C@H](O)C/C1=C/C=C1\CCC[C@]2(C)[C@@H]([C@H](C)CCCC(C)(C)O)CC[C@@H]12 [Calcidiol]	inactive: 28.3%
Cc1c(N(C)C)c(=O)n(-c2ccccc2)n1C [Aminophenazone]	inactive: 47.3%
Clc1ccc(Nc2nnc(Cc3ccncc3)c3ccccc23)cc1 [Vatalanib]	inactive: 43.4%
CCOC(=O)Nc1cc(-c2ccc(C)c(NS(C)(=O)=O)c2)nn2c(C)nnc12 [Bromosporine]	inactive: 35.6%
CNC(=O)Nc1ccc(-c2nc(N3CC4CCC(C3)O4)c3cnn(C4CCC5(CC4)OCCO5)c3n2)cc1	inactive: 39.2%
Nc1nc(Cl)nc2c1ncn2[C@@H]1O[C@H](CO)[C@@H](O)[C@@H]1F [Clofarabine]	inactive: 35.5%
CCn1cc(C(=O)O)c(=O)c2cc(F)c(N3CCN(C)CC3)cc21 [Pefloxacin]	inactive: 45.7%
CC(C)[C@H](C(=O)Nc1ccc(C(=O)NO)cc1)c1ccccc1	active: 9.62%
O=C1NC(=O)C(c2ccccc2[N+](=O)[O-])=C1Nc1ccc(O)c(Cl)c1	inactive: 46.9%
CCN(CCCc1ccccc1)CCCc1ccccc1 [Alverine]	inactive: 50.1%
CCCC(CCC)C(=O)O [Valproic Acid]	inactive: 43.5% and inactive: 41.1%
CCCN(CCC)CCc1cccc2c1CC(=O)N2 [Ropinirole]	inactive: 49.1%
CCCNCC(O)COc1ccccc1C(=O)CCc1ccccc1 (stereo not drawn) [Propafenone]	inactive: 39%
CNC(=O)c1ccccc1Sc1ccc2c(/C=C/c3ccccn3)[nH]nc2c1 [Axitinib]	inactive: 21.7%
C=CC/N=C1\C(=O)C=C2NC(=O)/C(C)=C/C=C\[C@H](OC)[C@@H](OC(N)=O)/C(C)=C/[C@H](C)[C@@H](O)[C@@H](OC)C[C@H](C)CC1=C2O [Tanespimycin]	active: 11.8%
CC(C)c1ccc(NC(=O)Cn2cnc3c2c(=O)n(C)c(=O)n3C)cc1	inactive: 49.2%
CCCc1nc2c(C)cc(-c3nc4ccccc4n3C)cc2n1Cc1ccc(-c2ccccc2C(=O)O)cc1 [Telmisartan]	inactive: 44.7%
Clc1ccc(C(c2ccccc2Cl)C(Cl)Cl)cc1 (stereo not drawn) [Mitotane]	inactive: 40.8%
